This note sets out measurements from PMC6656940.

Substrate in the data set: CC#CC(=O)N1CCC[C@H]1c1nc(-c2ccc(C(=O)Nc3ccccn3)cc2)c2c(N)nccn12
Description: Conversion of acalabrutinib to ACP-5862 in recombinant CYP enzymes. The note with it: other: conversion of acalabrutinib to ACP-5862, recombinant CYP3A4. The class given is in vitro ADME.

B1: CYP3A4 (Homo sapiens) (protein)
chain: MALIPDLAMETWLLLAVSLVLLYLYGTHSHGLFKKLGIPGPTPLPFLGNILSYHKGFCMFDMECHKKYGKVWGFYDGQQPVLAITDPDMIKTVLVKECYSVFTNRRPFGPVGFMKSAISIAEDEEWKRLRSLLSPTFTSGKLKEMVPIIAQYGDVLVRNLRREAETGKPVTLKDVFGAYSMDVITSTSFGVNIDSLNNPQDPFVENTKKLLRFDFLDPFFLSITVFPFLIPILEVLNICVFPREVTNFLRKSVKRMKESRLEDTQKHRVDFLQLMIDSQNSKETESHKALSDLELVAQSIIFIFAGYETTSSVLSFIMYELATHPDVQQKLQEEIDAVLPNKAPPTYDTVLQMEYLDMVVNETLRLFPIAMRLERVCKKDVEINGMFIPKGVVVMIPSYALHRDPKYWTEPEKFLPERFSKKNKDNIDPYIYTPFGSGPRNCIGMRFALMNMKLALIRVLQNFSFKPCKETQIPLKLSLGGLLQPEKPVVLKVESRDGTVSGA
What is called Km is the substrate concentration at which the rate is half of its maximum. Consider B1, for which the Michaelis constant (Km) worked out at 2.78 µM and the kcat was determined as 4.13 pmol/minutes/pmol.
